In publication PMC5892938:
The other results are listed elsewhere or left out. The source does not settle which construct or isoform was used.

What follows are sequences tested against GST-SBP-ILF3 (Homo sapiens) (UniProt Q12906) (assay: targeted RNA Bind-n-Seq). Conditions: RBNS binding buffer: 25 mM Tris pH 7.5, 150 mM KCl, 3 mM MgCl2, 0.1% Tween, 0.5 mg/mL BSA, 1 mM DTT; 27 nM protein, 750 pM RNA pool; temperature not stated; high values mean tight binding; sequences stand for … in GGGUAAAAGCGAGGUGAA…CGGGACAAGUAUUAUGGG.
For “UUUUUUUUUUGAGACCGGUCCGGUCUCCUA [tttttgagapaired]”, the binding signal (log2 fold change) was 1.12. “UUUUUUUUUUGAGACGGGCACCGUCUUCUA [tttttgagapaired]” was tested, and the binding signal (log2 fold change) was 0.052. Sequence “GGUGUGUGUGUUGGAACCUAACACAUAUAC [gtspaired]” has a binding signal (log2 fold change) of -0.791. “GUGUGUGGUGUUGGCCCCUAACACCGCAUA [gtspaired]” was tested, and the binding signal (log2 fold change) was 0.0552. Sequence “UUUUUUUUUUGAGACUGAAUCAGUCUCCAG [tttttgagapaired]” has a binding signal (log2 fold change) of 0.204. For “UUUUUUUUUUGAGAGGGAGACCCUUUCCAG [tttttgagapaired]”, the binding signal (log2 fold change) was 0.401. “UUUUUUUUUUGAGAUGGUUGCCAUCUCCAG [tttttgagapaired]” gave a binding signal (log2 fold change) of 0.313. Work on “UUUUUUUUUUGAGACGGAAACUGUCUCCUA [tttttgagapaired]” yielded a binding signal (log2 fold change) of 0.636. “UUUUUUUUUUGAGACGGAGUCCGUCUCCGG [tttttgagapaired]” gave a binding signal (log2 fold change) of 0.771. “GUGGUUGGUGUUGGCGUCUAACACCAAUCA [gtspaired]” showed a binding signal (log2 fold change) of -0.22. “UUUUUUUUUUGAGAGCGUGACGCUCUUCUG [tttttgagapaired]” gave a binding signal (log2 fold change) of 0.512. In the case of “GGUUGGUGUGUUGGUCCCUAACACAUCAGC [gtspaired]”, the binding signal (log2 fold change) is reported as -0.46. “UUUUUUUUUUGAGAACGAAUCGUUCUUCUA [tttttgagapaired]” gave a binding signal (log2 fold change) of -0.435. Work on “GUGUGGUGUGUUGGCUCCUAACACAUCACG [gtspaired]” yielded a binding signal (log2 fold change) of -0.52. “GGUGGUUGUGUUGGAAUCUAACACAAUCGC [gtspaired]” showed a binding signal (log2 fold change) of -0.785. In the case of “UUUUUUUUUUGAGAGCGAGACGCUCUCCUA [tttttgagapaired]”, the binding signal (log2 fold change) is reported as -0.0432. “UUUUUUUUUUGAGACGGCGGCCGUUUCCAG [tttttgagapaired]” gave a binding signal (log2 fold change) of 0.867. “GGUGUUGGUGUUGGCUCCUAACACCGAUAC [gtspaired]” showed a binding signal (log2 fold change) of -0.577. “UUUUUUUUUUGAGACCGAAGCGGUCUUCUA [tttttgagapaired]” showed a binding signal (log2 fold change) of 0.54. “UUUUUUUUUUGAGACGGACCCCGUCUCCUG [tttttgagapaired]” gave a binding signal (log2 fold change) of 0.877. “UUUUUUUUUUGAGAGUGACACACUCUCCAG [tttttgagapaired]” gave a binding signal (log2 fold change) of 0.138. “UUUUUUUUUUGAGAUGGUGUCCAUCUCCUG [tttttgagapaired]” was tested, and the binding signal (log2 fold change) was 0.639. In the case of “GUGGUGUGUGUUGGAAUCUAACACACAUCA [gtspaired]”, the binding signal (log2 fold change) is reported as -0.263. “UUUUUUUUUUGAGAUGGUAACCAUCUCCUA [tttttgagapaired]” showed a binding signal (log2 fold change) of 0.0437. For “UUUUUUUUUUGAGACCGUUUCGGUCUUCUG [tttttgagapaired]”, the binding signal (log2 fold change) was 0.565. For “GGUUGGUGUGUUGGUGCCUAACACAUCGAC [gtspaired]”, the binding signal (log2 fold change) was -0.606. Work on “UUUUUUUUUUGAGACUGGAACAGUCUCCGG [tttttgagapaired]” yielded a binding signal (log2 fold change) of 0.107. With “GUGUGUGGUGUUGGUUCCUAACACCACGCG [gtspaired]” the binding signal (log2 fold change) was -0.526. “GGUGUGUGUGUUGGUACCUAACACAUACGC [gtspaired]” gave a binding signal (log2 fold change) of -0.928. Sequence “UUUUUUUUUUGAGAGCGUAACGUUCUCCUA [tttttgagapaired]” has a binding signal (log2 fold change) of 0.109. With “UUUUUUUUUUGAGAGCGAAACGCUCUUCUG [tttttgagapaired]” the binding signal (log2 fold change) was 0.0452. Work on “UUUUUUUUUUGAGAGCGGGUCGUUCUCCAG [tttttgagapaired]” yielded a binding signal (log2 fold change) of 0.39. “UUUUUUUUUUGAGAGGGUAUCCCUCUUCUA [tttttgagapaired]” gave a binding signal (log2 fold change) of 0.307. “GUGUGGUGUGUUGGAGUCUAACACACUACA [gtspaired]” was tested, and the binding signal (log2 fold change) was -0.62. Work on “UUUUUUUUUUGAGAUCGUACCGAUCUCCGG [tttttgagapaired]” yielded a binding signal (log2 fold change) of 0.227. Sequence “UUUUUUUUUUGAGAGCGGUGCGUUCUCCUG [tttttgagapaired]” has a binding signal (log2 fold change) of 0.513. Work on “UUUUUUUUUUGAGAGGGCAGCCCUUUCCAG [tttttgagapaired]” yielded a binding signal (log2 fold change) of 0.56. With “GUGUGUUGUGUUGGAGCCUAACACAGCACA [gtspaired]” the binding signal (log2 fold change) was -0.433. Work on “UUUUUUUUUUGAGACCGGGUCGGUCUCCAG [tttttgagapaired]” yielded a binding signal (log2 fold change) of 0.405. For “UUUUUUUUUUGAGAGGGAGCCCCUCUCCUA [tttttgagapaired]”, the binding signal (log2 fold change) was 0.426. For “GGUUGUUGUGUUGGUACCUAACACAGCAAC [gtspaired]”, the binding signal (log2 fold change) was -0.666. “UUCUCUUCUCCUCCUGGGGAGGGGAAGGGA [ctspaired]” gave a binding signal (log2 fold change) of -0.575. “GGUGUGUGUGUUGGAGUCUAACACACGCGC [gtspaired]” showed a binding signal (log2 fold change) of -0.517. “UUUUUUUUUUGAGAGCGAAGCGUUCUCCUA [tttttgagapaired]” showed a binding signal (log2 fold change) of 0.0965. Work on “GGUGGUUGUGUUGGACCCUAACACAACUAC [gtspaired]” yielded a binding signal (log2 fold change) of -0.117. “UUUUUUUUUUGAGACGGGUGCCGUCUCCUG [tttttgagapaired]” gave a binding signal (log2 fold change) of 0.835. For “GUGUGUUGUGUUGGACCCUAACACAACACG [gtspaired]”, the binding signal (log2 fold change) was -0.262. “GUGGUGUGUGUUGGCAUCUAACACACGCCA [gtspaired]” was tested, and the binding signal (log2 fold change) was -0.378. “GGUUGUUGUGUUGGUCCCUAACACAGCAAC [gtspaired]” showed a binding signal (log2 fold change) of -0.614. Work on “UUUUUUUUUUGAGAUGGACACCAUCUCCGG [tttttgagapaired]” yielded a binding signal (log2 fold change) of 0.291. “GUGUGUUGUGUUGGUUCCUAACACAACGCG [gtspaired]” gave a binding signal (log2 fold change) of -0.857. In the case of “GUUGGUGGUGUUGGUACCUAACACCAUCAA [gtspaired]”, the binding signal (log2 fold change) is reported as -0.941.
